# Source: PubChem BioAssay AID686979 (National Center for Advancing Translational Sciences (NCATS), 2013)
# Out of some 420,000 compounds screened, about 50,000 (12%) were called active. The shares of active, inactive and inconclusive entries below differ from those in the screen. The call rests on the fitted dose curve; in most records, active means well fitted inhibition curve with a large enough effect; inconclusive means small, poorly fitted or top-dose-only effect; inactive means flat fitted curve, though single readings scatter. Potencies of inconclusive entries are left out as doubtful fits.
# Assay: qHTS for Inhibitors of human tyrosyl-DNA phosphodiesterase 1 (TDP1): qHTS in cells in presence of CPT; further: nearly all actives have a fitted effect of over 55% in size
# Conditions: chicken DT40 Tdp1-/-;hTDP1 cells + 20 nM CPT, ATP luminescence, 48 h; activity change, negative = growth inhibition: at 46.2 µM (top of the series)
# How it was run: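 Chicken DT40 Tdp1-/- cells complemented with human TDP1, 400 cells/well, exposed to compounds plus 20 nM camptothecin for at least 48 h at 37 C; viability read as ATP content by CellTiter-Glo luminescence.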
# On the % scale 0 is the no-effect control and ±100 the full control effect; potency means the concentration at half of the fitted maximal effect; tags describe the fitted curve by direction and shape.
Structure (SMILES),"activity change, negative = growth inhibition",Potency
COC(C/C=C\[C@H](O)[C@H](C)OCc1ccccc1)OC,inactive: -0.359%,
Cn1c(N)c(C(=O)COC(=O)/C=C/c2ccccc2)c(=O)n(C)c1=O,inactive: -23.5%,
O=c1c(-c2n[nH]c(=S)n2-c2ccccc2)cccn1Cc1cccc(Cl)c1,inactive: 2.06%,
C(=C\c1ccnc2ccccc12)/c1ccccc1,,"inconclusive [inhibitor, single point]"
CCCc1cc(=O)[nH]c(SCC(=O)c2cc(C)n(C(C)COC)c2C)n1 (centres undefined),inactive: 0.198%,
Cc1cccc(NC(=O)CSc2nc3ccc(NC(=O)c4ccco4)cc3s2)c1,,active: 10.3 µM
COc1ccc2nc(C)cc(N3CCN(S(=O)(=O)c4ccccc4F)CC3)c2c1,,"inconclusive [inhibitor, single point]"
Cn1c(-c2ccc3ccccc3n2)[n+](C)c2ccccc21,,active: 3.26 µM
Clc1ccccc1N1CCN(Cc2ccc(Br)o2)CC1,inactive: 8.89%,
COc1ccc(Cl)cc1NC(=O)NNC(=O)c1ccccn1,,"inconclusive [inhibitor, partial curve, poor fit]"
O=S(=O)(c1ccc2c(c1)CCCC2)N1CCN(c2nc(-c3ccccc3)nc3ccccc23)CC1,,active: 10 µM
COC(=O)\C(C(C)=O)=C(/C=C/C=C/C=C/N(C)C)N(C)C,,"inconclusive [inhibitor, single point]"
COc1ccccc1NC(=O)Cc1c(C(=O)O)[nH]c2ccc(Cl)cc12,inactive: 31.5%,
CCN(CC)c1ccc(C(=O)OCC(=O)Nc2ccccc2-c2ccccc2)cc1,,"inconclusive [inhibitor, single point]"
COc1cc(Cn2c(=O)sc3ccccc32)ccc1OC(C)C,,"inconclusive [inhibitor, single point]"
CCN(CC)C(=O)C(=O)N/N=C/c1ccc(C(=O)O)cc1,inactive: 0.0386%,
COc1cc(CNc2ccccc2)c([N+](=O)[O-])cc1OC,,"inconclusive [inhibitor, single point]"
Cc1cc(=O)oc(C)c1C(=O)OCC(=O)c1ccc(Cl)cc1,,"inconclusive [inhibitor, full curve, poor fit]"
COc1ccc(CNC(=O)Cc2csc3ccccc23)cc1OC,,"inconclusive [inhibitor, single point]"
CC(C)(C)NC(=O)C1CC1(c1ccccc1)c1ccccc1 (centres undefined),,"inconclusive [inhibitor, single point]"
COc1ccccc1C(=O)OCc1c(-c2ccccc2)ncc2ccccc12,,active: 16.4 µM
Nc1nccs1,,inactive
Cc1nn(-c2ccccc2)c(Cl)c1/C=C(\C#N)C(=O)NC(C)C,inactive: 1.5%,
CC(C)OC(=O)CSc1nc(N2CCOCC2)c2c(c1C#N)CC(C)(C)OC2,inactive: 2.04%,
Cn1c(=O)[nH]c(=O)c2c1nc(N1CCOCC1)n2CCc1ccccc1,inactive: -12.5%,

Structure (SMILES),"activity change, negative = growth inhibition",Potency
CN(C)C1(CNC(=O)C2CCN(S(=O)(=O)c3cc(Cl)ccc3Cl)CC2)CCCCC1,,"inconclusive [inhibitor, single point]"
O=C(N/N=C/c1cc([N+](=O)[O-])ccc1O)c1cc(-c2ccccc2)nc2ccccc12,,active: 5.8 µM
COc1cc(Br)c(/C=C(\C#N)c2nc3ccccc3[nH]2)cc1OC,,"inconclusive [inhibitor, single point]"
O=C(COc1ccc2ccc(=O)oc2c1)Nc1cccc(S(=O)(=O)N2CCCCC2)c1,,"inconclusive [inhibitor, single point]"
CC1CN(c2oc(-c3cccs3)nc2C#N)CC(C)O1 (centres undefined),inactive: -14.3%,
CC(NC(=O)c1cc(Sc2ccc(F)cc2F)nc2ccccc12)c1ccccc1 (centres undefined),,active: 13 µM
CC(=O)C1C(c2ccc(Cl)cc2)c2c(n[nH]c2C)CC1(C)O (centres undefined),inactive: -7.41%,
CC(=O)NC(=S)Nc1cc(C(F)(F)F)ccc1N1CCOCC1,inactive: -7.07%,
CCCCCCCCN1C(=O)[C@H](CC(=O)NCc2cccc(C(F)(F)F)c2)C[C@@]2(C(=O)OC)CC(C)(C)CC=C12,,active: 11.6 µM
COCCN1C(=O)CCC1(C)c1nnnn1-c1c(C)cccc1C (centres undefined),inactive: -5.73%,
COc1ccccc1-n1cc(CN2CCCC(CO)(Cc3cccc(Cl)c3)C2)cn1 (centres undefined),,"inconclusive [inhibitor, single point]"
Cc1ccc(OCC(=O)N2CCC3(CC2)CC(=O)c2ccccc2O3)cc1,,active: 20.6 µM
N#Cc1ccsc1NC(=O)CN1CCN(S(=O)(=O)c2ccc3ccccc3c2)CC1,,"inconclusive [inhibitor, single point]"
O=C(OC1CC2CC1[C@H]1CCCCN1C2=O)N1CCN(c2ccccc2)CC1 (some centres undefined),inactive: 1.8%,
CCOc1cc(/C=N/NC(=O)CN(CCc2ccccc2)S(=O)(=O)c2ccc(NC(C)=O)cc2)ccc1O,,"inconclusive [inhibitor, single point]"
O=C(Cc1ccccc1)NNC(=O)c1ccc(NC(=O)c2ccccc2)cc1,,"inconclusive [inhibitor, single point]"
CC(Oc1cccc(F)c1)c1ccnc2nc(/N=C/N(C)C)nn12 (centres undefined),,"inconclusive [inhibitor, single point]"
Cc1nc2ncnn2c(Nc2ccc3c(c2)OCO3)c1Cc1ccccc1,,"inconclusive [inhibitor, single point]"
O=C(Nc1ccc(OC(F)F)c(Cl)c1)c1cccc(OC(F)F)c1,,"inconclusive [inhibitor, single point]"
CC(NCc1ccc(OCc2ccc(Cl)cc2)cc1)C(O)c1ccccc1 (centres undefined),,active: 14.6 µM
Cc1ccc(S(=O)(=O)c2ccsc2NC(=O)c2ccccc2)cc1,inactive: -26.1%,
CCOc1ccc(CNc2ccc3c(c2)ncn3C)cc1,inactive: -12.4%,
O=S(=O)(Nc1ccc(S(=O)(=O)Nc2nccs2)cc1)c1ccc2c(c1)OCCO2,,"inconclusive [inhibitor, single point]"
CCc1nc2c(OCCOc3ccc(F)cc3)cccn2c1N(C)C(=O)c1ccc(C)cc1,,"inconclusive [inhibitor, single point]"
